In all, about 310,000 compounds went through this assay and about 2,200 (0.71%) showed an effect of 50% or more. Effects have a minus sign here. Some of the results follow.

human ether-à-go-go-related gene (hERG) potassium channel, sequence (Q12809 whole entry, looked up): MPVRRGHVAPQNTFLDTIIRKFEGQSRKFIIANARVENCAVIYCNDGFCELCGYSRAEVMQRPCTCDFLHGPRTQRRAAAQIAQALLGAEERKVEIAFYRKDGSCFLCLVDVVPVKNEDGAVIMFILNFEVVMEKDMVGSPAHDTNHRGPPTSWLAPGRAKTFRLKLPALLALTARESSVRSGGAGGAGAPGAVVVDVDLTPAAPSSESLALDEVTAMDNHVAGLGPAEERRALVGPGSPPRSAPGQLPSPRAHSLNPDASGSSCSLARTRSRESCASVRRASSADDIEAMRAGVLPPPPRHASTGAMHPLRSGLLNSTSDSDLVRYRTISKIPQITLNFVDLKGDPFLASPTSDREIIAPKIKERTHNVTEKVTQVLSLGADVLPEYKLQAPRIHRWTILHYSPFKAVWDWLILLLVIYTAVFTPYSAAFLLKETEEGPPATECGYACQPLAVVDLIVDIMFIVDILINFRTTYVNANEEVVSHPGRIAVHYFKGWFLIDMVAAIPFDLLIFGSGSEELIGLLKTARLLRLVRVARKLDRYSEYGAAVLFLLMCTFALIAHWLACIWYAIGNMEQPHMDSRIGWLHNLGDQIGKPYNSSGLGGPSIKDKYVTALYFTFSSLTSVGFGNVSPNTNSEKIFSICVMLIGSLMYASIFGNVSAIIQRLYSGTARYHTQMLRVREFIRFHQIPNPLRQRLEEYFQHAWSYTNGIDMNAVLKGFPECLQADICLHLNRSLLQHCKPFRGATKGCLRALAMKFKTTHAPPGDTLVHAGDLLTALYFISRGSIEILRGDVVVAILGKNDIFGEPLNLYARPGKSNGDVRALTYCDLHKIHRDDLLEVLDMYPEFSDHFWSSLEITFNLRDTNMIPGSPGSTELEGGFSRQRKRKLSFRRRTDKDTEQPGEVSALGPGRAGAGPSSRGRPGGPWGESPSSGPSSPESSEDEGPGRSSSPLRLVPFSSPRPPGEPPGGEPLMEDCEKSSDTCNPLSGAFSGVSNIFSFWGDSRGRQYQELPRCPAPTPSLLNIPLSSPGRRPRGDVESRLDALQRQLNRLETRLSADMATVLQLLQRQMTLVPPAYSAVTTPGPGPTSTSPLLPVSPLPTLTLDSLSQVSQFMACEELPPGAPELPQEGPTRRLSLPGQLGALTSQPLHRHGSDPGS

This experiment has as its target human ether-à-go-go-related gene (hERG) potassium channel (human, UniProt Q12809). Kind of experiment: primary screen, population patch clamp on CHO cells stably expressing hERG.
For `COc1ccc(C)cc1NS(=O)(=O)c1ccc(Cl)nc1`, the “hERG current change (%, negative = inhibition) at 1uM” value came out at 6.69%.
Then `CCN(CC)C(=O)c1ccc(-c2ccccc2)cc1`, with 12.4%.
Then `O=C1NC(=S)S/C1=C/c1ccc(OC(=O)c2ccco2)cc1`, with 10.8%; and `NS(=O)(=O)c1ccc(N/N=C/c2ccc[nH]2)c([N+](=O)[O-])c1`, with 1.58%.
In the case of `CCc1nc(SCC(=O)c2c[nH]c3ccccc23)n[nH]1`, the “hERG current change (%, negative = inhibition) at 1uM” value was 11.8%.
The result for `O=C(NC1CC1)C1CCN(S(=O)(=O)c2ccc(Cl)c([N+](=O)[O-])c2)CC1` reads 4%; that for `Cn1c(C(C#N)C(=O)c2ccco2)nc2ccccc21` (centres unmarked), 13.4%.
The result for `CCC[C@H](N[C@@H](C)C(=O)N1[C@H](C(=O)O)C[C@@H]2CCCC[C@@H]21)C(=O)OCC` reads 16.5%; that for `CCOCCCNC(=O)C(c1ccc(OC)cc1)N(Cc1ccc2c(c1)OCO2)C(=O)c1cnccn1` (centres unmarked), 7.66%.
Take `CC(C)c1nc2sc3c(SCC(N)=O)ncnc3c2c2c1CCC2`: the “hERG current change (%, negative = inhibition) at 1uM” value stood at 10.8%.
The result for `Cc1nc(SCC(=O)N2CCN(c3ccccc3)CC2)c2oc3ccccc3c2n1` reads 0.726%; that for `Cc1c(C(=O)NCc2ccc3c(c2)OCO3)oc2ccccc12`, 8.9%.
Then `O=S(=O)(c1ccccc1)c1cccc(S(=O)(=O)N2CCCCC2)c1`, with 3.89%; and `COc1ncccc1-c1nnn(-c2ccc(Cl)nc2)n1`, with 13%; and `C=CCOc1cccc(C2C(C(=O)c3cccs3)=C(O)C(=O)N2Cc2cccnc2)c1` (centres unmarked), with 2.04%.
Then `CCCC(=O)n1nc(-c2ccccc2)nc1N`, with 8.89%; and `Cc1cc(=O)oc2cc(OCC(O)CN3CCN(c4ccccc4)CC3)ccc12.Cl` (centres unmarked), with -6.39%; and `C#CCOCCOCCOCCNc1nc(N2CCN(C(=O)[C@H](Cc3ccc(O)cc3)n3cc([C@@H](N)CC(C)C)nn3)CC2)nc(N2CCN(C(=O)[C@H](Cc3cc4ccccc4[nH]3)n3cc([C@@H](N)CC(C)C)nn3)CC2)n1.Cl`, with 13.1%.
As for `Cc1ccc(C(=O)N/N=C/c2ccc(OC(=O)c3ccccc3Cl)cc2)cn1`, the “hERG current change (%, negative = inhibition) at 1uM” value was determined as 6.07%.
The result for `FC(F)(F)C1CC(c2cccs2)Nc2ncnn21` (centres unmarked) reads 1.93%; that for `O=C1c2ccccc2C(=O)N1CCC(c1ccc(F)cc1)c1ccco1` (centres unmarked), -1.72%; that for `Cc1nn(Cc2cccc3ccccc23)c(C)c1NC(=O)c1cccnc1`, 11.2%.
Then `Cc1cccc(NC(=S)Nc2ccc(N3CCOCC3)cc2)c1C`, with 11.8%.

The values above are taken from paper PMC4336329 (PLoS ONE, 2015).
